Results taken from PMC7819943, “Rice protein-binding microarrays: a tool to detect cis-acting elements near promoter regions in rice”.
The other results are listed elsewhere or left out.

biological target: T1, OsWOX13 (Oryza sativa, UniProt Q5QMM3 1-267); assay: protein-binding microarray (RPBM); PBS, 2% BSA, 51.3 ng/ul salmon testes DNA, 50 uM zinc acetate, 200 nM TF, 25 C, 1 h; high values mean tight binding; settings: protein: recombinant; tags: N-terminal polyhistidine and DsRed monomer fusion (pET32a); label: CyDye5-dUTP incorporated in the synthesized complementary strand; 3' TTTTT single-stranded linker to array surface; dsDNA, one strand shown
T1 sequence: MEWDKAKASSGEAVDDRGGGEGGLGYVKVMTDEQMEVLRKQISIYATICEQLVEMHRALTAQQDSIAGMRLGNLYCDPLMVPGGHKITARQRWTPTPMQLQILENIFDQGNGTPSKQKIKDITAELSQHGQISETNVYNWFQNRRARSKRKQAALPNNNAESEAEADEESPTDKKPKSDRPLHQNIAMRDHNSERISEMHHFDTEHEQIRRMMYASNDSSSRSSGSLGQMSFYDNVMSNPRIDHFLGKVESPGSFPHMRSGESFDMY
In short: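 Ni–NTA purification followed expression in E. coli BL21-CodonPlus of transcription factors fused N-terminally to a polyhistidine tag and DsRed. At 200 nM in PBS with 2% BSA, salmon testes DNA and 50 µM zinc acetate, the protein was incubated for 1 h at 25 °C with a custom Agilent array that had been primer-extended with Cy5-dUTP and blocked with 2% BSA. After washing, the array was read on an Axon 4000B scanner. The binding signal is per-feature fluorescence intensity in arbitrary units.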

Sequence | binding signal
AGTACATGATGTGACATTATCTGTTACTACGATTCTGGACCGGAGTCACCTAGTGCAG | 3410 fluorescence intensity (a.u.)
GAACCCGTCTATCTAAATTTAAATCCTAGATTACTGGGTTCGGAGTCACCTAGTGCAG | 5340 fluorescence intensity (a.u.)
TGACATAATTAGGCTTAAAAGATTCGTCTCGCAATTTTCTCGGAGTCACCTAGTGCAG | 8850 fluorescence intensity (a.u.)
GTGGTTCAATCAAACGGTCATTCCTGTGTTTTGCAATCCGCGGAGTCACCTAGTGCAG | 14100 fluorescence intensity (a.u.)
AGATATTTAATCATCAATTTACTATTCAATATTAAAATTCCGGAGTCACCTAGTGCAG | 9350 fluorescence intensity (a.u.)
TATTTAAATTCAAATTGAAATTCAAATTTAAATCGGATATCGGAGTCACCTAGTGCAG | 16800 fluorescence intensity (a.u.)
AGAATCAATTAGTGACCTCTACAATCTGAGGGTCTTGGATCGGAGTCACCTAGTGCAG | 27200 fluorescence intensity (a.u.)
TCGAACAGGCCCTTAATTATCTGAGCTATCCTGCATGCTTCGGAGTCACCTAGTGCAG | 8320 fluorescence intensity (a.u.)
CCAAAATTTGATATTGATAAGGTCAATTTAGGGCACACACCGGAGTCACCTAGTGCAG | 12300 fluorescence intensity (a.u.)
CTGATTGAAATTGAAAGTTTGATTGAAATTGAAACGATGCCGGAGTCACCTAGTGCAG | 65300 fluorescence intensity (a.u.)
TTCCTATAATTTCTAGTTATGAATCTGGATATAGGCAAAACGGAGTCACCTAGTGCAG | 4440 fluorescence intensity (a.u.)
AAGGTTAAACAAGATTGGCATGTACTCTTTCCATCCCATACGGAGTCACCTAGTGCAG | 7870 fluorescence intensity (a.u.)
CATGATTGAGGAGTGAAGAATGAAGTACAGCAATATACACCGGAGTCACCTAGTGCAG | 32000 fluorescence intensity (a.u.)
TGGTTAATCATGTGCCTTATTACTCGTAGTTCTCCTCGTTCGGAGTCACCTAGTGCAG | 4690 fluorescence intensity (a.u.)
AGCTCTAAAATTATAATTTTCAAAATTCATGTCTCATGCCCGGAGTCACCTAGTGCAG | 12600 fluorescence intensity (a.u.)
TTTGATAGGCATATTTCAATCCAACAACCTATCATCTTAACGGAGTCACCTAGTGCAG | 24700 fluorescence intensity (a.u.)
TTTAGATTAACCCGTCACCTAGGGCCTCTTCGAGTTAAGCCGGAGTCACCTAGTGCAG | 6420 fluorescence intensity (a.u.)
TTCCATGGACTAATTAGCAAGTTAATTTTCAGGGACGAAACGGAGTCACCTAGTGCAG | 17900 fluorescence intensity (a.u.)
GCTCCAATTTAATTTCAAAATGAATTTATATATTCATTGTCGGAGTCACCTAGTGCAG | 14100 fluorescence intensity (a.u.)
CACGGTTAATATTCTAATTACATGTGTTAAGTCCTTTAAACGGAGTCACCTAGTGCAG | 5570 fluorescence intensity (a.u.)
CTATAAATTTAAGCATATACTTCTATATTCAATTCGACATCGGAGTCACCTAGTGCAG | 5670 fluorescence intensity (a.u.)

Sequence | binding signal
AACTAATTAATGTATATTTATAATTTGAATAATTATCGAGCGGAGTCACCTAGTGCAG | 51500 fluorescence intensity (a.u.)
TTGATAATTAAATGACTATATTTGGTTTGTTACCAAATATCGGAGTCACCTAGTGCAG | 22700 fluorescence intensity (a.u.)
CTGATTAGCCGTTAATATACATGATCAACTATAAAACAAGCGGAGTCACCTAGTGCAG | 47000 fluorescence intensity (a.u.)
AATAAGGGACTTAATTAGTCTAGGTTAAACTGGATGTTGCCGGAGTCACCTAGTGCAG | 4640 fluorescence intensity (a.u.)
ATGATGTTCATCACCAAATTTGCAAAATTAGCGAGCTAGGCGGAGTCACCTAGTGCAG | 5700 fluorescence intensity (a.u.)
CCTAATTAAGCTATATACTCCATATAGCTAGCTAAACACACGGAGTCACCTAGTGCAG | 5020 fluorescence intensity (a.u.)
GTAAATCATAGGTGAAATAATATGTTTATAATTTACTTGTCGGAGTCACCTAGTGCAG | 3320 fluorescence intensity (a.u.)
AAAAGTGATGCAATTGACTGCAACAGTAATCGTTATTACACGGAGTCACCTAGTGCAG | 4880 fluorescence intensity (a.u.)
TGTGGAATTAATTTTGATCTTCTTGTTTCTGCAGTTGTCCCGGAGTCACCTAGTGCAG | 20000 fluorescence intensity (a.u.)
ATCCTCAATCAGACGGCCAAACAGAAAGGGTTAATCAATGCGGAGTCACCTAGTGCAG | 23300 fluorescence intensity (a.u.)
GTAGTAGATAAATTGATTTGTATGGTTTCTAGAGAAGGGACGGAGTCACCTAGTGCAG | 25300 fluorescence intensity (a.u.)
AAACGCATTGATTGCGCGGCGACGCGAGCCACAGCCACAGCGGAGTCACCTAGTGCAG | 16700 fluorescence intensity (a.u.)
CAAAACAAATTACAGATTCCGCCTATAAACTACGAGACGACGGAGTCACCTAGTGCAG | 6380 fluorescence intensity (a.u.)
AATAATTGGCACTGCTCCATTAACGTTTTATTACTGACATCGGAGTCACCTAGTGCAG | 45700 fluorescence intensity (a.u.)
TGGGATAATTATTTTCTTTATGTTTCTGAATGAATAGATACGGAGTCACCTAGTGCAG | 22600 fluorescence intensity (a.u.)
GCCACTGATTGTGGAGGGTGTGGATTTGGATTTACGCATGCGGAGTCACCTAGTGCAG | 20000 fluorescence intensity (a.u.)
ATAATTTGTTTGTGAGTGCTCTAAGAATATGTAGCTGCTCCGGAGTCACCTAGTGCAG | 5000 fluorescence intensity (a.u.)
ATGTCTCTTTCCTTTCAATCAAAACAACTTCCACCACGAGCGGAGTCACCTAGTGCAG | 7500 fluorescence intensity (a.u.)
ACCAGTTTTGTTGTCCGTAATTGGTGCTTCTATCTTTGCCCGGAGTCACCTAGTGCAG | 3790 fluorescence intensity (a.u.)
CTATCAAATTCCAATCAGTGGCTGCTGCATCCAGTCAATACGGAGTCACCTAGTGCAG | 14300 fluorescence intensity (a.u.)
CGGGTAATTAAAACCAATTTAGCTCTCGTTCGTCAGCGCCCGGAGTCACCTAGTGCAG | 29100 fluorescence intensity (a.u.)
